The source gives no read counts; variants with many changes may rest on few reads.
B1: LINE1-mini (parent)
chain: GGCAGAGCUCAACACAGCGUGGCAAAGUGGCUGUGGCUAGACUGCC

Variants of: B1
Assay: self-cleavage, relative activity (ratio to wild type); higher = more cleavage; in vitro, sequencing; the parent is a self-cleaving ribozyme
GGCAGAGCUCAACCCAGCGUGGCAAAGUGCCUGCGGGUAGACUGCG [A14C G30C U34C C37G C46G] gave a self-cleavage of 0.02. Work on GGCAGAGCUCAACACAGAGUGGCAAAGUGUCUGUGGCUAGUCUGCC [C18A G30U A41U] yielded a self-cleavage of 0.38. Work on CGUAGCGCUCAACACAGCGUGGCAAAGUGGCUGUGGCUAGAGUGCC [G1C C3U A6C C42G] yielded a self-cleavage of 0.03. For GGCAGAGCUCAACACAUCGUUGCAAAGUGGAUGUGGCUAGACUGCC [G17U G21U C31A], the self-cleavage was 0.09. For GGCAGAGGUAAACACAGAGCGGCAAAGUGGCUGUGGCUAGACUGCU [C8G C10A C18A U20C C46U], the self-cleavage was 0.01. GGCACGGCUCAACACACUGUGGCAAAGUGGCUGUGGCUAUACUGCC [G5C A6G G17C C18U G40U] showed a self-cleavage of 0.01. For GGCUGAGCGCAACACAGCGUUGCAAAGUGGCUGUGGCUAGACUGCC [A4U U9G G21U], the self-cleavage was 0.11. In the case of UGCAGAGCUCAACACAGCGUGGCAAAGUGACUGUGGCUCGACUGCC [G1U G30A A39C], the self-cleavage is reported as 0.03. In the case of GGCAGAGCUCAACACAGCGUGCCAAAGUGACUCUGGCUAGACUGCC [G22C G30A G33C], the self-cleavage is reported as 0.09. GGCAGAGCUCAAUACAACGUGGCAAAGUGGAUCUGGCUAGACUGCC [C13U G17A C31A G33C] showed a self-cleavage of 0.02. GGCACAGCUCAACACAGCGUGGAAAAGAGGCUGUGGCUAGACUGCC [G5C C23A U28A] gave a self-cleavage of 0.34. Variant CGCAGAGAUCCACACACCGUGCCAAAGUGGCUCUGGCAAGACAGCC [G1C C8A A11C G17C G22C G33C U38A U43A] has a self-cleavage of 0. GGAAGAGCUCAACAAAGCGUGGCAAAGUGGCUGUGACUAGACUGCC [C3A C15A G36A] showed a self-cleavage of 0.24. With GGUAGAGCUCAACUCAGCGUGGCAAAAUGGCUGUGGCUAGACUCCC [C3U A14U G27A G44C] the self-cleavage was 0.02. GUCAGAGCUCAACACAGCGUGGCAAAGUGGCUGAGGCUAGACUUCC [G2U U34A G44U] gave a self-cleavage of 0.03. Work on GGCAGAGCUCAACACAGGGUGGCAAAGUGGAUGUGGCUCCACUGCC [C18G C31A A39C G40C] yielded a self-cleavage of 0.01. With GGAAGAGCUCAACACAGCGUGGUAAAGUGGCUGUGGCUACACUGCC [C3A C23U G40C] the self-cleavage was 0.07. Work on GGCAGAGCUCAACACAGCGUGGCAAAGUGGCUGUGGUUAGAAUGCG [C37U C42A C46G] yielded a self-cleavage of 0.06. GGCAGAACUCAACAAAGCGUGGCAAAGUGGCUGUGGCGAGACUGCC [G7A C15A U38G] showed a self-cleavage of 0.02. For GGCAGAGCUCAACACAGCGUGGCAAAGUGGCUGUCGCUAGACUCAC [G35C G44C C45A], the self-cleavage was 0.05. With GGCAGAGCUUAACACAGCGUGGCAAAGUGGCUGUUGCUAGACAGCC [C10U G35U U43A] the self-cleavage was 0.05. Variant GGCAGAACUCAACACAGCGUGGAAAAGAAGCUGUGCCUAGACUGCC [G7A C23A U28A G29A G36C] has a self-cleavage of 0.13. Variant GGCAGAGCUUAACACAGAGUGGGAUAGUGGCUGUGGCUAGACUGCC [C10U C18A C23G A25U] has a self-cleavage of 0.06. Work on GGUAGAGCUAAACACCGCGUGGCAAAGUGGCUGUGGCUCGACUGCC [C3U C10A A16C A39C] yielded a self-cleavage of 0.01. GGCAGGGCACAACACAGCGUGGCGAAGUGGCUGUGGCUACACUGCC [A6G U9A A24G G40C] showed a self-cleavage of 0.12. Work on GGAAGUGCUCAACGCAGCGUGACAAAGUGGCUGUGGCUAGACUGCC [C3A A6U A14G G22A] yielded a self-cleavage of 0.12. UACAGAGCUCAACACAGCGUGGCAAAGUGGCUGUGGCUAGACUGGC [G1U G2A C45G] showed a self-cleavage of 0.27. Work on GGCAGAGCUCAACUCAGCGUGGCAAAGUGGCUCUGGCUAGAUUACC [A14U G33C C42U G44A] yielded a self-cleavage of 0.02. GGCAGAGCUCAACACAGCGUCGCAAAGUGGCUGUGGCAACACUGCC [G21C U38A G40C] showed a self-cleavage of 0.13. With GGCAGAGCUCGACACAGCGUGGCAACGUGGCUGUGGCUACACUGCC [A11G A26C G40C] the self-cleavage was 0. GGCACAGCUCGACACAGCGUGGCAAAGUGGAUGUGGCUGGACUGCC [G5C A11G C31A A39G] gave a self-cleavage of 0.02. Variant GGCAGAGCUCAAUACAGCGUGGCAAAAUGGCUGUGGAUAGACUGCC [C13U G27A C37A] has a self-cleavage of 0.07. GGCAGAGCUCAACAGAGCGUGGUAAAGUGGCUGUGGCUAGGCUGCC [C15G C23U A41G] gave a self-cleavage of 0.1. Variant GGCAGAUCUCAACACAGCGUGGCAACGCGGCUGUGGCCAGACUGCC [G7U A26C U28C U38C] has a self-cleavage of 0.02. In the case of GGCAGAACUUAACACAGCGUGGCAAAGUGGCUCUGGCUAGACUGCC [G7A C10U G33C], the self-cleavage is reported as 0.03. Variant GGCAGAGCUCAACACAGCGUGGCAAAGUGGCUGCGACUAGAUUGCC [U34C G36A C42U] has a self-cleavage of 0.16. With GGCAGAGCUAAACACAGCGUGGCAAAUUGUCUGUGGCUAGACUGGC [C10A G27U G30U C45G] the self-cleavage was 0.01. For GGAAGAGCUCAACACAGCGUGGCAGUGUGGCUUUGGCUAGACUGCC [C3A A25G A26U G33U], the self-cleavage was 0.15. Work on GGCCGAUCUCAAUACAGCGUCGCAAAUUCGCUGUGGCUAGACUGCC [A4C G7U C13U G21C G27U G29C] yielded a self-cleavage of 0.37. GGCAGAGCUCAACACAGCGUUGUAAAGUGGCUGUGGCUAUACUGCC [G21U C23U G40U] gave a self-cleavage of 0.14. For GGCUGAGCUAAACACCGCGUGGCAAAGUGGCUGUGGCUAGACUGCC [A4U C10A A16C], the self-cleavage was 0.03. In the case of GGCAGAGAUCAACACUGAGUGGCAAAGUGGCUCUGGUUAGACUGCC [C8A A16U C18A G33C C37U], the self-cleavage is reported as 0.05. Work on GCCCGAGCUAAACACAGCGUUGCAAAGUGGCUGUAGCUAGACUGCC [G2C A4C C10A G21U G35A] yielded a self-cleavage of 0.02. For GCCAGAGCUCAACACAGCGUGGCAAAGUUGAUGUGGCUAGACUUCC [G2C G29U C31A G44U], the self-cleavage was 0.19. For GGCAGAGCUCAACACAGCCUGGCAAUGUAGCUGUGGCUAGACUGCC [G19C A26U G29A], the self-cleavage was 0.22. With GGCAGAGCUAAACACAGCGUGGCAACAUGGCUGUGGCUAGACUGCC [C10A A26C G27A] the self-cleavage was 0.01. GGCAGAGCCCAUCACAUCAGGGCAAAGUGGCUGUGGCUAGACUGCC [U9C A12U G17U G19A U20G] gave a self-cleavage of 0.04. With GGAAGAGCUCAAGACAGCGUGACAAAGUGGCUCUGGCUAGACUGCC [C3A C13G G22A G33C] the self-cleavage was 0.08. In the case of GGCAUAGCUCAACACAGAGUGGCAAACUGGCUGUGGCUAGAUUGCC [G5U C18A G27C C42U], the self-cleavage is reported as 0.05. GGCAGAGCUCGACACAGCGUGGCAAAGUGGCUAAUGCUAGACUGCC [A11G G33A U34A G35U] gave a self-cleavage of 0.03. AGCAGAGCUCAACCCAGCAUGACAGAGUGGCUCUGGCUAGACUGCC [G1A A14C G19A G22A A25G G33C] gave a self-cleavage of 0.04. In the case of GGCAGCGCUCAACACAGCGUCGAAAAGUGGCUGUGGCUAGCCUGCC [A6C G21C C23A A41C], the self-cleavage is reported as 0.04. For GGCAGAGCUCAACACAGAGUGGCGAAGUGGAUGAGGCUAGACUGCC [C18A A24G C31A U34A], the self-cleavage was 0.01. Work on AGCAGAGCUCAACACAGCGUGGCAUAGUGGUUGUGGCUAGACUGCC [G1A A25U C31U] yielded a self-cleavage of 0.11. Variant GCCAGAGCUCAACACAGCGUGGCAAAUUGGCUGUGGCUAGACGGUC [G2C G27U U43G C45U] has a self-cleavage of 0.01. For GGCAGAGCUCAACACAGCGUGGCUAAGUGGUUGAGGCUAGACUGCC [A24U C31U U34A], the self-cleavage was 0.03.
